Reference: article PMC9418145 (2022)

How the values were obtained:
[1] = molecular target: T1, LLT1^SIM, N120R, R153E, K169A secondary interaction mode triple mutant of the soluble LLT1 ectodomain (Homo sapiens, UniProt Q9UHP7 72-191, N120R | R153E | K169A | H176C); experiment: AUC; A+B<=>AB model
[2] = molecular target: T2, stabilized H176C form of the soluble human LLT1 ectodomain (Gln72-Val191), glycosylated (human, UniProt Q9UHP7 72-191, H176C, GlcNAc2Man5 glycans); experiment: MST; A+B<=>AB model
[3] = molecular target: T1, LLT1^SIM, N120R, R153E, K169A secondary …; experiment: AUC; BAB model, second site (KD2)
[4] = molecular target: T2, stabilized H176C form of the soluble …; experiment: AUC; BAB model, second site (KD2)
[5] = molecular target: T1, LLT1^SIM, N120R, R153E, K169A secondary …; experiment: AUC; BAB model, first site (KD1)
[6] = molecular target: T2, stabilized H176C form of the soluble …; experiment: AUC; BAB model, first site (KD1)
[7] = molecular target: T1, LLT1^SIM, N120R, R153E, K169A secondary …; experiment: MST; A+B<=>AB model

B1: soluble human NKR-P1 ectodomain (C-type lectin-like domain, […]), glycosylated with uniform GlcNAc2Man5 N-glycans (domain or fragment)
chain: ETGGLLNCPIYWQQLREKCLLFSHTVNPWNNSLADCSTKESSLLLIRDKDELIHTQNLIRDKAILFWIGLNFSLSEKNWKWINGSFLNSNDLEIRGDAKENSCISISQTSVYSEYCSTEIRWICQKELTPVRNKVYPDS
modifications: Asn-GlcNAc2Man5 N-glycans; potential N-glycosylation sites Asn116, Asn157, Asn169
**Q.** Which Kd [1] does the source give for B1 here?
**A.** 318 µM

**Q.** And the Kd [2]?
**A.** 102 µM

**Q.** And the Kd [3]?
**A.** 308 µM

**Q.** And the Kd [4]?
**A.** 191 µM

**Q.** What about the Kd [5] of the same binder?
**A.** 299 µM

**Q.** And the Kd [6]?
**A.** 52 µM

**Q.** What about the Kd [7] of the same binder?
**A.** 260 µM
